Laboratory results: the supplement of paper PMC11283458
Structures can show the parent of a compound that is named as a salt. Some of the results follow. Repeats are few or missing, and single values can be far off.

Tests used:
[1] = tested on: Mef2d microexon dual Nano/Firefly luciferase splicing reporter in Neuro-2a cells; test: B-score of Firefly/Nano luminescence ratio, V1 Mef2d microexon reporter (B-score (plate-normalised)); higher = more Mef2d microexon inclusion; conditions: 24 h
[2] = tested on: Mef2d microexon dual Nano/Firefly luciferase splicing reporter in Neuro-2a cells; test: B-score of Nano/Firefly luminescence ratio, V2 Mef2d microexon reporter (B-score (plate-normalised)); higher = more Mef2d microexon inclusion; conditions: 24 h
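For B-score of Nano/Firefly luminescence ratio, V2 Mef2d microexon reporter in this document: compounds at 4 µM (PKI library 0.5 µM) on Dox-inducible N2A Flp-In cells with PEST-tagged luciferases, 384-well plates, B-score from per-plate median-polish residual over median absolute residual.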

Compound | B-score [1] | B-score [2]
N#Cc1ccc(NCc2ccccc2Cl)cc1 (4 µM) | -8.09 | -3.17
O=C(NCCNc1nccc(C(F)(F)F)n1)Nc1ccccc1Cl (4 µM) | -11.5 | -20.6
c1cc(-c2cnn3cc(-c4ccc(OCCN5CCCCC5)cc4)cnc23)ccn1 [Dorsomorphin dihydrochloride] (4 µM) | -10.7 | -17.8
CC1=NNC(=O)/C1=N\Nc1ccc(Br)cc1 (4 µM) | 2.02 | 18
CC(C)(C)c1ccc(C(O)CCCN2CCC(C(O)(c3ccccc3)c3ccccc3)CC2)cc1 (stereo not drawn) (4 µM) | 3.62 | 2.4
COc1cc2nccc(Oc3ccc(NC(=O)Nc4cc(C)on4)c(Cl)c3)c2cc1OC (0.5 µM) | 7.46 | 8.95
Cc1ccc2c(=O)c3ccccc3n(CCCN)c2c1C (4 µM) | -12.7 | -18.8
Clc1ccccc1NCn1nnc2ccccc21 (4 µM) | 5.27 | 1.43
O=C(Nc1ccccc1)O/N=C(\Nc1ccc(OC(F)(F)F)cc1)c1c(Cl)cccc1Cl (4 µM) | 1.35 | 12
Cc1nn(-c2ccccc2)c(C)c1C(=O)ON=C(N)c1ccc(C(C)(C)C)cc1 (4 µM) | -2.54 | -11.4
O=[N+]([O-])c1ccc(/C=N\Nc2ncnc3sc4c(c23)CCCC4)o1 (4 µM) | 3.9 | 6.52
C=CC(C)(C)c1[nH]c2ccccc2c1C1=C(O)C(=O)C(c2c[nH]c3c(CC=C(C)C)cccc23)=C(O)C1=O [Demethylasterriquinone B1] (4 µM) | -4.54 | -4.78
CCN(CC)C(=O)ON=C(N)c1cc(Br)c(OC)c(Br)c1 (4 µM) | 11.3 | 3.58
COc1ccccc1/C=C1\C(=O)NC(=O)c2ccccc21 (4 µM) | -3.33 | -5.5
Nc1ncnc2c1c(-c1cccc(OCc3ccccc3)c1)cn2C1CC(CN2CCC2)C1 (stereo not drawn) (0.5 µM) | 16.4 | 5
Cc1nc(C(N)=NOC(=O)c2c(-c3ccccc3Cl)noc2C)cs1 (4 µM) | 4.47 | 1.63
Cc1cc(Nc2cc(N3CCN(C)CC3)nc(/C=C/c3ccccc3)n2)n[nH]1 (0.5 µM) | 6.26 | 2.81
Cc1cc(I)ccc1N1C(=O)C=CC1=O (4 µM) | 5.23 | 3.53
O=C(Nc1ncc(-c2cc(C(F)F)nn2-c2c(Cl)cccc2Cl)s1)C1CC1 (0.5 µM) | -4.32 | -4.89
COc1ccc(/C(C#N)=C/c2ccc3c(c2)OCO3)cc1OC (4 µM) | -2.4 | -9.47
N#Cc1sccc1N(S(=O)(=O)c1cc(C(F)(F)F)cc(C(F)(F)F)c1)S(=O)(=O)c1cc(C(F)(F)F)cc(C(F)(F)F)c1 (4 µM) | 7.62 | 4.32
Cc1cc(Nc2cc(CN3CCOCC3)c3nc(C)c(Cc4ccc(Cl)cc4F)n3n2)n[nH]1 (0.5 µM) | 9.06 | 9.85
Nc1c2c(nc3ccccc13)CCCC2 [9-Amino-1,2,3,4-tetrahydroacridine hydrochloride] (4 µM) | 9.74 | 13.7
N[C@@H](CSC(c1ccccc1)(c1ccccc1)c1ccccc1)C(=O)O [S-Trityl-L-cysteine] (4 µM) | -5.15 | -8.9
CNC(=S)N/N=C/c1ccccc1O (4 µM) | 17.7 | 28.5

Compound | B-score [1] | B-score [2]
CN1c2cc3c(cc2N=C(c2ccc(C(=O)O)cc2)c2ccccc21)C(C)(C)CCC3(C)C (4 µM) | 5.97 | 2.55
CCn1c(-c2ccccc2)c(C(=O)CN2C(=O)NC(C)(C3CC3)C2=O)c2ccccc21 (stereo not drawn) (4 µM) | 2.24 | 6.16
CC1=CC(C)(C)Nc2ccc(OC(=O)CN3C(=O)CCC3=O)cc21 (4 µM) | -2.46 | -4.12
NC(=NOC(=O)N1CCOCC1)c1ccc(Cl)cc1 (4 µM) | 6.65 | 2.4
N#CCc1ccc(Nc2nc(Nc3cc(C4CCC4)[nH]n3)c3ccccc3n2)cc1 (0.5 µM) | -15.2 | -15.2
CSc1nn(-c2ccccc2)cc1C(=O)Sc1ccccn1 (4 µM) | 3.24 | 5.52
N#Cc1c(NC(=O)c2cccc3ccccc23)sc2c1CCCC2 (0.5 µM) | -6.13 | -7.27
Cc1cc(Nc2nc(N[C@@H](C)c3ncc(F)cn3)ncc2Cl)[nH]n1 (0.5 µM) | 14.7 | 10.5
CNC(=O)c1cccc(-c2ccc3c(N4CCOC[C@@H]4C)nc(N4CCOC[C@@H]4C)nc3n2)c1 (0.5 µM) | -6.88 | -6.19
C=CCn1c(N)c(C(=O)NN=Cc2cccs2)sc1=S (4 µM) | 4.38 | 2.21
Nc1ccc(S(=O)(=O)Nc2cccc(C(F)(F)F)c2)cc1 (4 µM) | 3.37 | 2.56
CCc1cnn2c(NCc3ccc[n+]([O-])c3)cc(N3CCCC[C@H]3CCO)nc12 (0.5 µM) | -5.23 | -5.07
CC(C)(C)NC(=S)NN=CC=NNC(=S)NC(C)(C)C (4 µM) | 3.85 | 19.8
Cn1cc(-c2cnn3c(N)c(Br)c([C@@H]4CCCNC4)nc23)cn1 (0.5 µM) | -5.07 | -2.58
CONC1CCCCC1NOC.Cl.Cl (stereo not drawn) (4 µM) | -13.4 | -0.208
COC(=O)C1C(C(=O)OC)C2(OC(c3ccccc3)=CC2=O)C12OC(c1ccccc1)=CC2=O (stereo not drawn) (4 µM) | 5.48 | 5.99
O=C1OC(CC(=O)c2csc3ccccc23)c2ccccc21 (stereo not drawn) (4 µM) | 10.4 | 2.5
CC(C=Cc1ccccc1)=NOC(=O)c1c(-c2c(Cl)cccc2Cl)noc1C (4 µM) | 2.56 | 6.46
Fc1c(CSC2=NCCN2)cccc1CSC1=NCCN1 (4 µM) | 3.75 | 0.953
Ic1ccc(N2CCN(Cc3c[nH]c4ncccc34)CC2)cc1 [L-750,667 trihydrochloride] (4 µM) | 6.26 | 3.16
Nc1nc(Nc2ccc(S(N)(=O)=O)cc2)nn1C(=S)Nc1c(F)cccc1F [Cdk1/2 Inhibitor III] (0.5 µM) | -19.6 | -19.4
NC(CSc1ncccc1C(F)(F)F)=NOC(=O)c1ccc(Cl)cc1 (4 µM) | 3.18 | 1.3
CCc1cccc(N2CC(C(=O)Nc3nc4ccccc4[nH]3)CC2=O)c1 (stereo not drawn) (4 µM) | -1 | -5.59
Cc1nn(CCC(N)=NOC(=O)c2cc(Cl)cc(Cl)c2)c(C)c1Oc1ccc(Cl)cc1.O.O (4 µM) | 3.54 | 4.28
